The supplement of paper PMC11417369
The other results are listed elsewhere or left out.

test system: PF3D7_0420300 AP2 domain 1 (GST-tagged); experiment: gcPBM binding intensity (ln(normalized median fluorescence intensity)); higher = stronger DNA binding
Procedure, shortened: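 Probes on an Agilent 4 × 180k array were primer-extended, double-stranded and 36 bp long, taken from intergenic genomic regions, with negative controls added. GST-tagged P. falciparum DNA-binding domains from E. coli, about 25 μg on average, were applied to the array for 1 h in 1× PBS containing 1% milk, 0.2 mg/ml BSA, 0.5% salmon testes DNA and 0.03% Triton X-100. Binding intensity, obtained after Alexa488 anti-GST antibody detection and a 488 nm scan, is the highest Masliner-normalised natural-log median intensity across replicate spots of either probe orientation.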

Row | Sequence | gcPBM binding intensity (ln)
1 | TATCATTTCATATCAAGTACAAACATTTTACATATA [XGTACX_site5307] | 9.12
2 | ATAATAATATATATTGTACACACAAAATGGGAAAAA [CACACA_site8568] | 9.74
3 | TATATATATATAATAGTGCATAAATAAATATATAAA | 9.28
4 | ATTAAGACACATTGCACACGTGCACCCATAGAAAAA [CACACA_site408] | 9.38
5 | TATTTATTATTAAGATGTACATAAAACACTGAATAA [XGTACX_site4246] | 9.26
6 | GACCATATGAATAATGCACACGTTTTAAAATATTAA [CACACA_site5312] | 9.29
7 | TGAAAAAGGAAAAAAAAAAAAAAAAAAAAAACGAAA [GTGCAC_negctrl_site555] | 9.36
8 | TATCTCATAGTATACACACACACACCCACCCATATA [CACACA_site1739] | 10.4
9 | AATATATATATATTCACACATAAAAAAGTAAAAAAA [CACACA_site5040] | 9.47
10 | CACACGCACGAACACACACACACACGCATATAAATA [CACACA_site6302] | 10.3
11 | AGCTCTTGTCATTTTGCACACACACCCGTATAGGTT [CACACA_site3056] | 10
12 | GATTCTTCACCGTACTCACACATATATATATATATA [CACACA_site5665] | 9.64
13 | AAAAGGGAAATAAAATAAAAAAAGAAACATATATAG [CACACA_negctrl_site455] | 9.39
14 | ATCCATTATTTTTGTTGTACGGGTAACTTTAAAAAG [XGTACX_site2226] | 9.25
15 | TCTTTTTTTTTTAAACGTACATTGCATTATCACGTA [XGTACX_site6873] | 9.19
16 | TTAATTTCTATATACGCATGTATGAATAAGATATTG [TGCATGCA_site202] | 8.88
17 | TAATTATATGTATACACACACATACATTTACATAAC [CACACA_site3238] | 9.82
18 | CAAACAAACAAATATACACACTTTTGTATAAAGTAA [CACACA_site5860] | 9.52
19 | TATAATTATATATATAGTACAGATTTGTTATGTTTA [XGTACX_site7724] | 9.2
20 | ATTTTTTTATAAGAAAATTTCTAACGTTAAAAAAAA [CACACA_negctrl_site1367] | 8.61
21 | ATGAATTATAAATATTCACACAATATTTTTCATATG [CACACA_site4484] | 9.16
22 | AGTGTGCTCAGCTTAGCACAAATTGGAATACCATGT [CACACA_negctrl_site367] | 9.25

Row | Sequence | gcPBM binding intensity (ln)
23 | GAAAATGAAATCCTTGCATGTAAAATTAAAATAGAA [TGCATGCA_site569] | 9.16
24 | TTTTTTTCTTAAAGATGTACTTTTTAAAAATAATCT [XGTACX_site1429] | 8.88
25 | GTAGTAATAAATTAAAGTACAGAATATATTATACTA [XGTACX_site2809] | 9.36
26 | CATTTACATGCCAACATGCACTGAACAATCTTTATA [GTGCAC_site9797] | 9.19
27 | ACAAAACTTTTAAGAACACACAAAAATGTACTATCG [CACACA_site7245] | 9.42
28 | TTTTATGAATAATTATGTACATAACAAATGATATAT [XGTACX_site8318] | 9.09
29 | CCCTATATAAATAGCTGTACATTTGAACATGTTCAG [XGTACX_site2187] | 9.05
30 | TACAAAAAAAAATAAAATACATATATATATATATAT [XGTACX_negctrl_site608] | 9.3
31 | TTTACAGGAAAAAATACACACATTATTTTACCTTAT [CACACA_site2833] | 9.4
32 | CAATAAAAATTAAAATGTACAAATAAATATAAATAT [XGTACX_site7265] | 9.51
33 | ACATGCCAAAATCTAATACAATAATAATAAAAAAAA [XGTACX_negctrl_site160] | 9.22
34 | ATATAAATAAACAGGTGTACTATAATGTTCATAGTA [XGTACX_site1553] | 9.47
35 | TATGATTTCACATAATGTACTTGCTAATTCGTGAAT [XGTACX_site1408] | 9.07
36 | GGGAAAATATTTGGGTGTACAAACAAATTAGCTAGC [XGTACX_site6795] | 9.24
37 | TAATTATATATATATGCATGTTATAATTTTTATTTT [TGCATGCA_site78] | 9.13
38 | AAGAAAATATAAAATGCACACTATAAATTGTATTTA [CACACA_site4257] | 9.37
39 | TCTTTAACAAGTTAAACACACATACATAAATACATA [CACACA_site5406] | 9.43
40 | TTATGTCATAAATGCACACATATACATTGTTTTGAT [CACACA_site646] | 9.36
41 | TGTGTGTGTTCATGGGTGCTTTAATACTATTATAGG [GTGCAC_site9465] | 9.82
42 | TATTATAAAAATATTCAGATACATTAACTTACTTTT [XGTACX_negctrl_site4] | 9
43 | TATTTGCTACATATATGTACTAAAAACTTTTTGCTT [XGTACX_site2362] | 9.13
44 | TATCAATTTTTCTGGCTATCCAATTAGGGGAAGCCA [CACACA_negctrl_site1045] | 8.63

Row | Sequence | gcPBM binding intensity (ln)
45 | ATTTGCTCACAAGAAGCACACAAAAAAAGAAAAAAA [CACACA_site9338] | 9.05
46 | CAAAAAATTTGACGTAGTACTTAAAAAAAAAAAAAA [XGTACX_site4523] | 8.81
47 | AACACCCACAGACACACACACAAAAATGATTAAAAA [CACACA_site2433] | 9.83
48 | TATTTGTATAAATAAAAATAATATATATCAAATAAC [CACACA_negctrl_site218] | 9.15
49 | ACAAAAATATTATATTGTACATTATTAGTTCATATT [XGTACX_site6750] | 9.38
50 | TTTTTATATAAATAATGTACATTTGGTTTTATTATA [XGTACX_site2125] | 9.24
51 | CAATAAATCGAAATCGTGCACGGACACATGCAGTAG | 9.52
52 | GGTTCATTTATATGGAGTACAAAAAATATGTATATA [XGTACX_site8209] | 9.05
53 | AAATAATATAAATACACACACACATATATAAATACA [CACACA_site4465] | 10.2
54 | ATATATATAATAAGTGGTACAAGTTATTCATTAAAT [XGTACX_site7063] | 9.42
55 | TTTTTTTATACAATTTTATATATTAAATATTATAAT [CACACA_negctrl_site226] | 8.99
56 | AAAGAAAACGGACTTTGTACTTAAATATAATATAAA [XGTACX_site8585] | 9.1
57 | TAAAGTTATATATTATGTACATATTTGTATACATTT [XGTACX_site2516] | 9.26
58 | AAATATAGTATTAAAACACACATTTATATAAAAAGG [CACACA_site1482] | 9.45
59 | AACAAAAAAACAAACACACACACACGCATATTTATA [CACACA_site7680] | 10.2
60 | TGAACTCATAGGAAAACACACATATGTGTAATATAT [CACACA_site4267] | 9.61
61 | AAAAACAACACAGATAAATTAACACACACACACATA [XGTACX_negctrl_site588] | 10.2
62 | TATATACTCAGACATACACACAAATAAAAAAACACC [CACACA_site5820] | 10.1
63 | TTATGTGATTTTAATTGTACATAAATATTTGTTAAC [XGTACX_site3489] | 9.13
64 | CACGCATACAGACACACACACACACGGATATAAATA [CACACA_site6445] | 10.3
65 | TGTATTACGAAAAAATGTACAGAAAAAGAAACAAAA [XGTACX_site2777] | 9.49
66 | TTTGTCATAAGCAATGCATGTAAGTTTCTGACATTA [TGCATGCA_site1007] | 8.86

Row | Sequence | gcPBM binding intensity (ln)
67 | TGGGATAGATCATTTACACACACAAAAAAAAAAAAA [CACACA_site2140] | 9.62
68 | TCTTATATATTTATTTGTACATATATATATATATAT [XGTACX_site7214] | 9.24
69 | AACAACTATTAATTTACACACATGTATTTATTTTAC [CACACA_site5683] | 9.73
70 | AATTGTCAGAGAATATGTACTTAAGTATTTATTGTT [XGTACX_site1947] | 9.3
71 | AATGCATTGATTGCATTCAAAAAAAAAAAAAAAAAA [XGTACX_negctrl_site597] | 8.35
72 | AATAAGATATCTACAACACACATTTAATTTTTTTTT [CACACA_site1641] | 9.42
73 | AATCATAAAGAACATATAATATATATATATATATAT [CACACA_negctrl_site316] | 9.22
74 | ATAAAAAAATAAAACACACACATATATATTATATAT [CACACA_site2810] | 10
75 | TAAATAAAAAAACACACACACATATATATATATATA [CACACA_site2269] | 9.94
76 | AATATATGCTTTCGTTATATTAAATTCAATTTAATG [GTGCAC_negctrl_site76] | 9.1
77 | AATTTTAAAAATATAACACACATATATAAAATATAT [CACACA_site3610] | 9.35
78 | AATGAAGAAAAAAAAAGTACATTATTTTTAAAACTT [XGTACX_site563] | 9.16
79 | TTTTAAATAAAATATTGTACATTAAAATTGTAATAT [XGTACX_site2128] | 8.86
80 | ATTATAAATATGTATATACACACTTTTAATATTCAT [CACACA_site9367] | 9.5
81 | AAGCAAACATATTAATGTACACACACCCACACACAA [XGTACX_site5806] | 10.1
82 | TAAGATAAATGATAAAGTACTTTTTTTTTTTAAATA [XGTACX_site2326] | 8.84
83 | ATTTATAAAATTAATAGTACATATATTTATATATAT [XGTACX_site4173] | 9.01
84 | TATTGCACAAAATAATTTTATTATACTTTATGTTAG [TGCATGCA_negctrl_site574] | 9.15
85 | TATGTTCATCATAGCACACATATATAAATTACAACA [CACACA_site3533] | 9.22
86 | ATTTGGCATAGACACACACACACACGCACGCACATA [CACACA_site6424] | 10.4
87 | CAAAAATAAACTATAGTACACACTTATTATTATGAA [CACACA_site2702] | 9.46
88 | TTTTTATGTAGAATTTTTTTATTTTTTCAAAATGGA [CACACA_negctrl_site166] | 8.69
